# According to paper PMC12136788:
# The list shows a part of the results.
# B1: chr9:26842284:26842285:-_ENSG00000120159_ENST00000333916|hu_mus|motif|central (ssRNA)
# RNA: GGGAGUUCUACAGUCCGACGAUCAUACAAAAUUAUAUGACAUGGCUUCAUUCAAACACACAUAAUAUUCAAGUCAGAAAACGGCACUGGCUUUUUUAUAUCACCAGCUUUCAUGAGAGCCUUAAUUGCUCUUGCCCUCAUUUCCAACAGAGGAUUGAGCAUCA
# B2: chr2:20138125:20138126:-_ENSG00000118965_ENST00000281405|hu_mus|FALSE|FALSE (ssRNA)
# RNA: GGGAGUUCUACAGUCCGACGAUCUUCAAUUCCAACUUUCUCAAUCAAUGCUCGGCUGUCUCGCAGGGACCGGAUCUCAAAGUUCAUUAUGUAAUCCUUGCUAGGGUGCUCUGGGUCCUUCAGUAUCUCAUCCAAGAGAACAGACAACAGAGGAUUGAGCAUCA
# B3: 114969895_114970468_1347_CDS_ENSG00000197323_ENST00000358465|human|control|control (ssRNA)
# RNA: GGGAGUUCUACAGUCCGACGAUCAUGACGCAACUGGAAAGUAAUCAGUCGCUUGCUGUAUAGUAGUGCUGUGCUGCUGCCACUUGCAAUUGCCCAAUUUGUGAAGUUCAUAACAUGCUUCACCUGCCGGGAAAGGCCUGUGAUCAACAGAGGAUUGAGCAUCA
# B4: chr1:58468927:58468928:-_ENSMUSG00000026034_ENSMUST00000148330|mus_mus|mus_mus_mus_hu_False|28_58 (ssRNA)
# RNA: GGGAGUUCUACAGUCCGACGAUCAAUUACUGAAAAAGAUGUUCAUUACCUUAGCUAUGUACUUAAUGAACCAAAUUAUCUAAAAAAAAUAAACAUGGCAAUAUAAAAAGCUAUACAAUUUACAAAGCUGUACAAAAUAACUUACAACAGAGGAUUGAGCAUCA
# B5: chr13:98020659:98020660:+_ENSMUSG00000041773_ENSMUST00000041623|mus_hu|FALSE|FALSE (ssRNA)
# RNA: GGGAGUUCUACAGUCCGACGAUCACAAUUACAAGACAAGGACUAGAUCACAGGUUUGUUCAUUCAUAUUUAAACCAUGUGCUACUUGCACCAAAAAUCCCACCCCCCUCCCUCGCCCCUUUCCUUCAUGUCCAGUUAGAGCAUCAACAGAGGAUUGAGCAUCA
# B6: chr5:31552970:31552971:+_ENSG00000082213_ENST00000325366|hu_mus|motif|central (ssRNA)
# RNA: GGGAGUUCUACAGUCCGACGAUCCUGGAAGCCCAGAAACAAAAGCCGGGUCUGUCACUGCGCCAAACUGCACAGCAGCCGGGCACGGUCUCAGCUCAGAGGGGACUCUUCUGAGUACACCAGGUGAGUGUCCAGGGUCCCGUACAACAGAGGAUUGAGCAUCA
# B7: chr7:128503047:128503048:+_ENSG00000128524_ENST00000249289|hu_hu|motif|central (ssRNA)
# RNA: GGGAGUUCUACAGUCCGACGAUCGGUUGUAUCCUUCUCCACCACCAGGAAAUUGGGAUGGCGGUUCUUGUUAAGCUCCCCGGUGCCGCCCAGCAGGAAACCAGUCACCGUGUCCUCGUCUCCGAUCACUGCGAUGAGCUUACCCAACAGAGGAUUGAGCAUCA
# B8: chr5:128440902:128440903:+_ENSG00000066583_ENST00000173527|hu_mus|hu_hu_hu_mus_True|68_78 (ssRNA)
# RNA: GGGAGUUCUACAGUCCGACGAUCUUGAACGGUGCUGCCAAGUCCUUUGGGGUAUUGUUCUGUUACAAUAACAGGAAUCCCUAAGAUCCGAGCUCCUUGCAACAGUCUCUGUCCCACACUAAUGAUGUCCCCAAAGUAUUUGAUCAACAGAGGAUUGAGCAUCA
# B9: chrX:148438211:148438212:+_ENSMUSG00000025260_ENSMUST00000026289|mus_mus|motif|central (ssRNA)
# RNA: GGGAGUUCUACAGUCCGACGAUCGUCUGGUUCAUUCUGGCCCAUCUCCCCAGCAACCAGGCGGAUCACAUUGAAAGUGCCGGUAAGAUUCACAUUGAUAACCCGCUGGAAGUCCUCCAAAGUAUGGAUCUUGUUCUUCUUUUGCAACAGAGGAUUGAGCAUCA
# B10: chr1:58468927:58468928:-_ENSMUSG00000026034_ENSMUST00000148330|mus_mus|motif|central (ssRNA)
# RNA: GGGAGUUCUACAGUCCGACGAUCAUUCUAUAAUUACUGAAAGAUGUUAUUUGGUUUGGCCAUGUAUUUAAUAAAGCAUCGGAAAAACAUAAAAUGUUUUACAAAUUAAGCUAUACAAAAUAACUUAAUUAAAAGCUAGACUGACAACAGAGGAUUGAGCAUCA
# B11: chr3:41281661:41281662:+_ENSG00000168036_ENST00000349496|hu_mus|motif|central (ssRNA)
# RNA: GGGAGUUCUACAGUCCGACGAUCACCUGCUUAUUUUAAGCAUAUUAAAAAGGAAACUAAUCGGACCAUUUCUAUCUGUCGGUUUAUACAAAAGGCUACACAAUGUUACACGUCUCCAGAUUACAAUUAGCGUGAUUAUGAAUUCAACAGAGGAUUGAGCAUCA
# B12: chr2:27436100:27436101:+_ENSG00000138085_ENST00000606999|hu_hu|FALSE|FALSE (ssRNA)
# RNA: GGGAGUUCUACAGUCCGACGAUCGGUGCCCUUCUGAUUCAGGCAGCAACGGGCAUGCAGCAUUAGCUCUCGUGUCGUUUUACAAUAAAAGGCCACUUUUGACAAAUUUUGCACGCUCCCUGGACAUUGGGUGCAUAUCUCGGGCAACAGAGGAUUGAGCAUCA
# B13: chr4:144460044:144460045:+_ENSG00000153147_ENST00000283131|hu_mus|hu_hu_hu_mus_False|1_58 (ssRNA)
# RNA: GGGAGUUCUACAGUCCGACGAUCACGGUCCAUAGCCUGAAGAUCAACUUGCGGAUUCCAAUCUGAGUCAUAUAAAAUUACUACAUCAGCAGUUGCAAGAUUGAUGCCCAGACCACCAGCACGUGUGCUUAGCAUAAAAACAAACAACAGAGGAUUGAGCAUCA
# B14: chr1:29070155:29070156:+_ENSG00000198492_ENST00000541996|hu_hu|FALSE|FALSE (ssRNA)
# RNA: GGGAGUUCUACAGUCCGACGAUCCACAGCAGAUUUCAUUUCUGCCACGCCACAGAAGUGUCCACUGCCGUUGACACUGAAAAGUAAGUAAACGGGGCCUUUCCCGUUCAUGGAACGAUAAGCAGCAUCCAGUCUCUUGUUACCCAACAGAGGAUUGAGCAUCA
# B15: chr8:117878989:117878990:-_ENSG00000164754_ENST00000297338|hu_hu|hu_hu_hu_mus_True|18_58 (ssRNA)
# RNA: GGGAGUUCUACAGUCCGACGAUCCCAGAGGCCCUCGUUUACUGAGGACAAAAUGUGCGUAGAACAUUUUUCUUAUUGGCUAUGAAAUAAGAAGAAACCUGGAUCUCGGCGGGGAGCUUGGGCGGGCGGGUGGCCCGGGGAGGGCAACAGAGGAUUGAGCAUCA
# B16: chr11:23187360:23187361:+_ENSMUSG00000020290_ENSMUST00000020538|mus_mus|motif|central (ssRNA)
# RNA: GGGAGUUCUACAGUCCGACGAUCGCUCACCCAACCAGAUAUUAACUUUAAAGUUUCCCUUUUUACUGUCCGCAUACUUCGGAUCAAUGGUUGCUUUGUAACCAUCUCACCAUUAGCUUGAAUAGCUGCAGAAAUAUUUUCACUCAACAGAGGAUUGAGCAUCA
# B17: chr11:106643937:106643938:-_ENSMUSG00000020719_ENSMUST00000021062|mus_mus|FALSE|FALSE (ssRNA)
# RNA: GGGAGUUCUACAGUCCGACGAUCAGGUGUAAAGAAAGUGUAUGCUGUGCCUGUUUUGGUACUGCGAGCAGUUCUUCCAAUUCGAUGAAUAUAAUCCUCUGAGGAGUUAGGGUAGUCAUAAUUGAUGACAAAUUUCACAUCUUCCAACAGAGGAUUGAGCAUCA
# B18: chr14:31888013:31888014:+_ENSMUSG00000042323_ENSMUST00000112095|mus_mus|FALSE|FALSE (ssRNA)
# RNA: GGGAGUUCUACAGUCCGACGAUCGCUGAGUGCUGGAGAAAGAAGGAUCUCUCCAUUUUUGCAGAGUUCAUCACGAAUUCUAAUAAAAAACUGCUGAAGUUCUACAGCAUCCUCAUAUAUUUCGGAAUCUGUCCGGUUCAUCCUCAACAGAGGAUUGAGCAUCA
# B19: chr11:87793471:87793472:-_ENSMUSG00000020483_ENSMUST00000020775|mus_mus|mus_mus_mus_hu_False|18_38 (ssRNA)
# RNA: GGGAGUUCUACAGUCCGACGAUCUGGACUUGAAAAUAAAAGAAUAAGCUGGAUCCCCCACCCCCCCACAUUGUCAACCCUACACGAGAGUUUUGAAUGAUUCAUAAGAAAAUCAGCCUCAAUUGGCGCAAUGACCACCCCACCCAACAGAGGAUUGAGCAUCA
# B20: chr1:94914635:94914636:-_ENSMUSG00000014602_ENSMUST00000171796|mus_hu|FALSE|FALSE (ssRNA)
# RNA: GGGAGUUCUACAGUCCGACGAUCAACAGGGUGGAGGUGGUUGGGGGUUCCAUCUGAAUAUUACAGGGCUAUGUGGAGGCAUUAGAAAUAAAUACUUAUAAAUAGAACAAGUCUUAUAGUUAAUUUCCGAGUUGACUGUUUCAACAACAGAGGAUUGAGCAUCA
# B21: chr9:95013113:95013114:-_ENSG00000196305_ENST00000443024|hu_hu|hu_hu_hu_mus_False|28_48 (ssRNA)
# RNA: GGGAGUUCUACAGUCCGACGAUCCUCAGUCAGAAAGGGCGUGUAAGGGGCCAUCAGUCUGCACAGAGAAAGCAGGACACUGAACAGGGUUUCUAGGGCCAUGACACAAUCCUCCAUCCCACUCUCACCCUUUAACCUCCUCCUCAACAGAGGAUUGAGCAUCA
# B22: chr10:33214929:33214930:-_ENSG00000150093_ENST00000302278|hu_hu|hu_hu_hu_mus_True|18_28 (ssRNA)
# RNA: GGGAGUUCUACAGUCCGACGAUCAACAAGUUCAUUGAAAAACUCUCCUCUGUCAGUAAGACUAAGCACAUUUUUGUAGCUAAAUGGGCUGGUGCAGUUUUGUUCACUUGUGCAAGGGUUCCUGAGCUUUGCUGGGGUUGUGCUCAACAGAGGAUUGAGCAUCA
# Molecular target: T1, UNK ZnF1-3 (human, UniProt Q9C0B0 31-174)
# T1 sequence: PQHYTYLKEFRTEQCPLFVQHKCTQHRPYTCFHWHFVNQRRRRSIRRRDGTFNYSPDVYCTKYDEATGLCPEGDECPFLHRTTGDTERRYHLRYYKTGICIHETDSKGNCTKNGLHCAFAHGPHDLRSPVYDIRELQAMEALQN
# Experiment: nsRBNS (natural sequence RNA bind-n-seq); RBNS binding buffer (assumed for nsRBNS): 25 mM Tris pH 7.5, 150 mM KCl, 3 mM MgCl2, 0.01% Triton X-100, 500 ug/ml BSA, 20 U/ml SUPERase-In, 4 C; UNK is unkempt and MSI1 is Musashi-1; names of the RNAs are library labels; protein concentration not given here; high values mean tight binding
row,Binder,binding signal [enrichment R]
1,B1,0.849
2,B2,0.695
3,B3,0.894
4,B4,1.26
5,B5,1.65
6,B6,0.842
7,B7,0.872
8,B8,0.613
9,B9,0.721
10,B10,1.28
11,B11,0.824
12,B12,0.687
13,B13,1.37
14,B14,0.7
15,B15,1.09
16,B16,0.651
17,B17,2.51
18,B18,1.3
19,B19,1.92
20,B20,1.86
21,B21,1.24
22,B22,1.01
